# Measurements reported in publication PMC5388433.
# Chains of the proteins cited; added tags and fusions are not shown.
# UniProt P45973: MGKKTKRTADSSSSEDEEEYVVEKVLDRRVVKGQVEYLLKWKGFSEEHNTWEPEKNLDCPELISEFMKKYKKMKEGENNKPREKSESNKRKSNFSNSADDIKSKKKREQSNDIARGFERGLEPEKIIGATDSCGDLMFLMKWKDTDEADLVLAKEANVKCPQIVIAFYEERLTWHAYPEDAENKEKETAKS
# Positions count from the first letter of the chain named. These are yes or no findings as the source states them, for the method shown. Some binding calls cover weakened binding; strength is not graded here. Sequences can lack the tags named with a protein.
# Tests used:
# [1] = target: T1, purified full length FLAG-GFP-tagged KDM2A PHD C>A (human) (UniProt Q9Y2K7); test: pull-down; nucleosomes (2.5 μg octamer, unmethylated biotinylated 601-DNA) immobilised on streptavidin beads, incubated with 2 μg purified full length FLAG-GFP-KDM2A (WT or mutant) and 2 μg HP1α in 1 ml binding buffer (20 mM HEPES pH7.9, 150 mM NaCl, 0.1% NP40); immunoblot; both purified
# T1 sequence: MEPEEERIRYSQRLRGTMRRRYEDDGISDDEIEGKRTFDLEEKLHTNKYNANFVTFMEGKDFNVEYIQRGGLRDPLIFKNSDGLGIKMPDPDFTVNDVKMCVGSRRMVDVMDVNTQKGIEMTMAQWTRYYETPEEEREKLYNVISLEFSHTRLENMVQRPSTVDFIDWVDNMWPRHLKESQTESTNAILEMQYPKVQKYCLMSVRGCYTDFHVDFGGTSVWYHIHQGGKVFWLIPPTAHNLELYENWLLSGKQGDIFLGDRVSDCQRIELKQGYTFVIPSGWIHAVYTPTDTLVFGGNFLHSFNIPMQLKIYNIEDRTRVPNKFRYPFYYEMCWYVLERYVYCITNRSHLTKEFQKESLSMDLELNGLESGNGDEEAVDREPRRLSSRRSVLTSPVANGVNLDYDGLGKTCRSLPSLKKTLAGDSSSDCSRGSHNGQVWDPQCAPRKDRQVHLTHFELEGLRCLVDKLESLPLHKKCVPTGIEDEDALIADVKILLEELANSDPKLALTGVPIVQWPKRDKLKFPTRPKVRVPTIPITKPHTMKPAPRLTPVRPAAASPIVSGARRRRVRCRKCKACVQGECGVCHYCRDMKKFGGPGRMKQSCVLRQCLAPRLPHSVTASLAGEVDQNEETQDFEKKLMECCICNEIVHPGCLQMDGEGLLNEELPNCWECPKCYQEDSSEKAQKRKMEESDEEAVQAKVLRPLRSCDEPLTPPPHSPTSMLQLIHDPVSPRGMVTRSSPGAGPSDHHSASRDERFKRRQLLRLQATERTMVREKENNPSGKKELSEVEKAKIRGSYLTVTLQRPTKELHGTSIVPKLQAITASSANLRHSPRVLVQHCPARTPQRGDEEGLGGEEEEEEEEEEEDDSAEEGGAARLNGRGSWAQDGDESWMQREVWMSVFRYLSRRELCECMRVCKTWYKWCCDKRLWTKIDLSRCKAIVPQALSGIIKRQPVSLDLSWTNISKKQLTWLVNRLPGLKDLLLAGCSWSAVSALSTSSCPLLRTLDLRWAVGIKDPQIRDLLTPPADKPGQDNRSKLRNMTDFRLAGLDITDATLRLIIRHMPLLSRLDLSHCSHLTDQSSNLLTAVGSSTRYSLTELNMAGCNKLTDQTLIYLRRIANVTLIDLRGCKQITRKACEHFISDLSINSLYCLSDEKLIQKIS
# [2] = target: T2, purified full length FLAG-GFP-tagged KDM2A (WT) (human) (UniProt Q9Y2K7); test: as above
# T2 sequence: T1 sequence with A620C, A623C
substance,measurement,setting,value
recombinant purified HP1α (WT) (from UniProt P45973 1-191),binding,[1],binds
same,binding,[2],binds
